# Experimental data as given in PubChem BioAssay (NCATS).
# Where “and” joins values, the source holds several entries; their conditions need not be identical. Identical values can stand only once. The shares of active, inactive and inconclusive entries below differ from those in the screen. For part of these data: Where the call is inconclusive, the potency comes from a doubtful curve fit. Calls of active or inactive are those of the source. The call rests on the fitted dose curve; in most records, active means well fitted curve in the direction sought with a large enough effect; inconclusive means small, poorly fitted or top-dose-only effect, or another doubt; inactive means no such curve, though single readings can be large; an effect the other way counts as inactive or inconclusive.
# How the values were obtained:
# [1] = NS1 protein of Zika virus - qHTS assay to identify small molecule inhibitors in human HEK 293 cells (AID 1347053); further: nearly all actives have a fitted effect of over 55% in size
# In short: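 Read-out is a two-antibody TR-FRET for ZIKV NS1, normalized between uninfected cells and infected cells. Compound added 1 h before MR766 infection at MOI 0.5; human HEK 293 cells incubated 24 h, 37 C.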
# [2] = qHTS of pediatric cancer cell lines to identify multiple opportunities for drug repurposing: Primary screen for DAOY cells (AID 1347090); conditions: DAOY medulloblastoma viability, CellTiter-Glo luminescence, 48 h; activity change, negative = cytotoxic: at 46 µM (top of the series); further: nearly all actives have a fitted effect of over 55% in size
# In short: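 Eight- or eleven-point concentration series, 48 h treatment at 37 degrees C in growth media; readout CellTiter-Glo luminescence. Potency and efficacy were taken from the concentration-response curves.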
# [3] = qHTS of pediatric cancer cell lines to identify multiple opportunities for drug repurposing: Primary screen for U-2 OS cells (AID 1347096); further: nearly all actives have a fitted effect of over 50% in size
# In short: (§1)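 Cells (500-1,000/well) in growth media were settled 5 h at 37 degrees C, then given compounds for 48 h. Viability was read as CellTiter-Glo luminescence. Primary runs used MIPE at 11 points (0.78 nM-46 µM) and NPC at 8 points (0.59 nM-46 µM); follow-ups used 11 points.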
# [4] = Quantitative High-Throughput drug screen in 47 multiple myeloma cell lines against the NCATS MIPE library collection: KHM11_PLB cell viability assay (AID 1918962); conditions: KHM11 myeloma cell viability, CellTiter-Glo ATP luminescence, 48 h; viability, % of DMSO control: at 45.8 µM (top of the series); further: nearly all actives have a fitted effect of over 35% in size;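 on viability, % of DMSO control: 0% = media only wells and 100% = DMSO treated cells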
# In short: (§2)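 Relative luminescence from CellTiter-Glo served as the viability signal, referenced to DMSO-treated (100%) and cell-free medium (0%) controls. Treatment lasted 48 hours at 37C with 500 cells per well.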
# [5] = Quantitative High-Throughput drug screen in 47 multiple myeloma cell lines against the NCATS MIPE library collection: KMS34_JCRB cell viability assay (AID 1918985); further: nearly all actives have a fitted effect of over 40% in size
# In short: (§3)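 Readout: median RLU from CellTiter-Glo after 5 min at room temperature. Preceding step was 48 h drug treatment of 500 cells/well at 37 °C, 5% CO2, with DMSO-only and media-only control wells.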
# [6] = Quantitative High-Throughput drug screen in 47 multiple myeloma cell lines against the NCATS MIPE library collection: SKMM1_PLB cell viability assay (AID 1919863); conditions: SKMM1 myeloma viability, CellTiter-Glo ATP, 48 h; viability: stronger effect = lower value; further: nearly all actives have a fitted effect of over 35% in size
# In short: as §3
# [7] = Quantitative High-Throughput drug screen in 47 multiple myeloma cell lines against the NCATS MIPE library collection: UTMC2_PLB cell viability assay (AID 1919868); conditions: CellTiter-Glo ATP luminescence, 48 h; viability (% of DMSO control): at 45.8 µM (top of the series); further: nearly all actives have a fitted effect of over 55% in size
# In short: as §3
# HaCat = assay: Cytotoxic Profiling of Annotated Libraries Using Quantitative High-Throughput Screening (AID 1296008); conditions: Five cell lines viability, CellTiter-Glo ATP luminescence, 48-72 h; max response: stronger effect = lower value; further: nearly all actives have a fitted effect of over 60% in size; on max response: on the % scale 0 is the no-effect control and ±100 the full control effect
# In short: (§4)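 Compounds were pin-transferred onto cells and incubated 48 or 72 hr at 37 degree Celsius, 95% humidity. CellTiter-Glo was added, plates sat 10 min at room temperature, then ATP-coupled luminescence was imaged as the viability read-out.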
# MKL-1 = assay: qHTS assay to identify novel small-molecules to repurpose for Merkel cell carcinoma treatment (AID 1296009); conditions: MCC and control cell lines, CellTiter-Glo viability, 72 h; activity change, negative = cytotoxicity: at 46 µM (top of the series); further: nearly all actives have a fitted effect of over 60% in size; on activity change, negative = cytotoxicity: on the % scale 0 is the no-effect control and ±100 the full control effect
# In short: (§5)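 Luminescence from CellTiter-Glo, read 10 min after addition at room temperature, reported viability following a 72 hr, 37 degree celsius treatment with NPC or MIPE compounds in titration; values normalized to plate controls.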
# MKL-2 = assay: as above; conditions: MCC and control cell lines, CellTiter-Glo viability, 72 h; activity change, negative = cytotoxicity: at 46 µM (top of the series)
# In short: as §5
# WaGa = assay: as above; conditions: MCC and control cell lines, CellTiter-Glo viability, 72 h; series mostly up to 46 µM
# In short: as §5
# SKOV3 = assay: Primary qHTS to identify gynecologic anti-cancer compounds using libraries of approved drugs and bioactive compounds (AID 1345084); conditions: Gynecologic cancer cell panel viability, ATPlite luminescence, 48 h; series mostly up to 57.5 µM; further: nearly all actives have a fitted effect of over 55% in size
# In short: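 Cells, 1,000 per well, were allowed to settle for 16 h at 37 C before compound addition. Five concentrations were tested for 48 h, and viability was read by ATPlite luminescence after 15 min at room temperature.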
# [8] = qHTS of pediatric cancer cell lines to identify multiple opportunities for drug repurposing: Primary screen for BT-37 cells (AID 1347094)
# In short: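 Following a 5-hour attachment period, cells at 500-1,000/well received compounds and were cultured for 48 hours. CellTiter-Glo was added and luminescence read to estimate viable, metabolically active cells.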
# [9] = Quantitative High-Throughput drug screen in 47 multiple myeloma cell lines against the NCATS MIPE library collection: Karpas417_ECACC cell viability assay (AID 1918961); conditions: Karpas417 myeloma viability, CellTiter-Glo ATP luminescence, 48 h; viability (% of DMSO): at 45.8 µM (top of the series)
# In short: as §2
# [10] = Quantitative High-Throughput drug screen in 47 multiple myeloma cell lines against the NCATS MIPE library collection: OCIMY1_PLB cell viability assay (AID 1918979); further: nearly all actives have a fitted effect of over 35% in size
# In short: as §3
# KB-3-1 = assay: Cytotoxic Profiling of Annotated Libraries Using Quantitative High-Throughput Screening (AID 1296008); conditions: Five cell lines viability, CellTiter-Glo ATP luminescence, 48-72 h; max response: stronger effect = lower value; further: nearly all actives have a fitted effect of over 60% in size; on max response: on the % scale 0 is the no-effect control and ±100 the full control effect
# In short: as §4
# MCC-13 = assay: qHTS assay to identify novel small-molecules to repurpose for Merkel cell carcinoma treatment (AID 1296009); conditions: MCC and control cell lines, CellTiter-Glo viability, 72 h; series mostly up to 46 µM; further: nearly all actives have a fitted effect of over 60% in size
# In short: as §5
# UISO = assay: as above; conditions: MCC and control cell lines, CellTiter-Glo viability, 72 h; activity change, negative = cytotoxicity: at 46 µM (top of the series)
# In short: as §5
# NIH3T3 = assay: Cytotoxic Profiling of Annotated Libraries Using Quantitative High-Throughput Screening (AID 1296008); conditions: Five cell lines viability, CellTiter-Glo ATP luminescence, 48-72 h; max response: stronger effect = lower value; further: nearly all actives have a fitted effect of over 60% in size; on max response: on the % scale 0 is the no-effect control and ±100 the full control effect
# In short: as §4
# [11] = qHTS of pediatric cancer cell lines to identify multiple opportunities for drug repurposing: Primary screen for LAN-5 cells (AID 1347100)
# In short: as §1
# Potency means the concentration at half of the fitted maximal effect; tags describe the fitted curve by direction and shape.
smiles,measurement,setting,value
CC[C@@H]1C(=O)N(C)c2cnc(Nc3ccc(C(=O)NC4CCC(N5CCN(CC6CC6)CC5)CC4)cc3OC)nc2N1C(C)C (some centres not stated),Potency,[1],active: 0.105 µM
same,Potency,[2],active: 0.0743 µM
same,Potency,[3],active: 11.8 µM
same,Potency,[4],active: 8.33 µM
same,Potency,[5],active: 0.105 µM
same,Potency,[6],active: 2.35 µM
same,Potency,[7],"inconclusive: 11.8 µM [cytotoxic, full curve, poor fit]"
same,Potency,HaCat,"active: 59 nM and inconclusive: 20.6 nM [inhibitor, full curve, poor fit]"
same,Potency,MKL-1,active: 0.0743 µM
same,Potency,MKL-2,active: 4.18 µM
same,Potency,WaGa,"inconclusive: 0.0235 µM [inhibitor, full curve, poor fit]"
same,Potency,SKOV3,"inconclusive: 5.01 µM [cytotoxic, partial curve, poor fit] and inconclusive: 15.8 µM"
C[C@@H](Oc1cc(-n2cnc3ccc(CN4CCN(C)CC4)cc32)sc1C(N)=O)c1ccccc1C(F)(F)F,Potency,[1],active: 0.059 µM
same,Potency,[2],"inconclusive: 0.0296 µM [cytotoxic, full curve, poor fit]"
same,Potency,[8],active: 0.153 µM
same,Potency,[3],active: 29.6 µM
same,Potency,[9],"inconclusive: 0.264 µM [rising, full curve, poor fit]"
same,Potency,[4],"inconclusive: 37.2 µM [cytotoxic, partial curve, poor fit]"
same,Potency,[10],"inconclusive: 0.132 µM [cytotoxic, full curve]"
same,Potency,[5],active: 0.0418 µM
same,Potency,[6],"inconclusive: 0.0332 µM [cytotoxic, full curve, poor fit]"
same,Potency,[7],"inconclusive: 0.935 µM [rising, full curve, poor fit]"
same,Potency,HaCat,"inconclusive: 33.2 nM [inhibitor, full curve, poor fit]"
same,Potency,KB-3-1,active: 11.8 nM
same,Potency,MCC-13,"inconclusive: 0.187 µM [inhibitor, full curve]"
same,Potency,MKL-2,"inconclusive: 26.4 µM [inhibitor, partial curve, poor fit]"
same,Potency,UISO,"inconclusive: 0.132 µM [inhibitor, full curve]"
same,Potency,WaGa,"inconclusive: 14.8 µM [inhibitor, partial curve, poor fit]"
Cc1cncc2cccc(S(=O)(=O)N3CCCN(C(=O)CN)C[C@@H]3C)c12,Potency,[2],"inconclusive: 29.6 µM [cytotoxic, single point]"
same,Potency,[9],"inconclusive: 5.26 µM [cytotoxic, partial curve, poor fit]"
same,"viability, % of DMSO control",[4],inconclusive: 81.4% [cytotoxic]
same,Potency,[10],"inconclusive: 37.2 µM [cytotoxic, single point]"
same,Potency,[5],"inconclusive: 29.6 µM [cytotoxic, single point]"
same,Potency,[6],"inconclusive: 0.0074 µM [rising, full curve, poor fit]"
same,Potency,[7],active: 5.9 µM
same,Potency,HaCat,"inconclusive: 4610 nM [inhibitor, full curve, poor fit]"
same,max response,KB-3-1,inactive: -18.7% and inactive: -19.4%
same,Potency,NIH3T3,active: 26.4 µM
same,Potency,MCC-13,"inconclusive: 13.2 µM [inhibitor, partial curve]"
same,Potency,MKL-1,"inconclusive: 6.62 µM [inhibitor, full curve]"
same,Potency,UISO,inactive
same,Potency,WaGa,"inconclusive: 6.62 µM [inhibitor, full curve]"
same,Potency,SKOV3,"inconclusive: 28.2 µM [rising, partial curve]"
COc1ccc(C(=O)CC2(O)C(=O)Nc3c(Cl)ccc(Cl)c32)cc1 (configuration not stated),Potency,[2],active: 3.72 µM
same,Potency,[8],"inconclusive: 4.32 µM [cytotoxic, full curve]"
same,Potency,[11],active: 1.32 µM
same,Potency,[4],inactive
same,Potency,[10],"inconclusive: 4.69 µM [cytotoxic, full curve]"
same,Potency,[6],active: 1.18 µM
same,Potency,[7],active: 4.18 µM
same,Potency,HaCat,"inconclusive: 2640 nM [inhibitor, partial curve]"
same,Potency,KB-3-1,active: 3.72 µM and active: 5.17 µM
same,Potency,NIH3T3,active: 9.35 µM and active: 2.91 µM
same,Potency,MCC-13,"inconclusive: 8.33 µM [inhibitor, full curve]"
same,Potency,MKL-1,"inconclusive: 5.26 µM [inhibitor, full curve]"
same,Potency,MKL-2,"inconclusive: 1.32 µM [inhibitor, full curve]"
same,Potency,UISO,active: 5.26 µM
same,Potency,WaGa,"inconclusive: 3.32 µM [inhibitor, full curve]"
same,Potency,SKOV3,"inconclusive: 22.4 µM [cytotoxic, partial curve, poor fit]"
COc1c(OCCCN2CCOCC2)ccc2c3n(c(=NC(=O)c4cnc(N)nc4)nc12)CCN3,Potency,[1],"inconclusive: 8.12 µM [inhibitor, partial curve]"
same,Potency,[2],"inconclusive: 0.0645 µM [cytotoxic, full curve]"
same,Potency,[8],"inconclusive: 1.88 µM [cytotoxic, partial curve]"
same,Potency,[9],active: 0.0081 µM
same,Potency,[7],active: 0.115 µM
same,Potency,HaCat,"inconclusive: 182 nM [inhibitor, full curve, poor fit]"
same,Potency,KB-3-1,"inconclusive: 1620 nM [inhibitor, full curve]"
same,Potency,NIH3T3,active: 2.88 µM and active: 59.6 nM
same,Potency,MCC-13,"inconclusive: 14.4 µM [inhibitor, partial curve, poor fit]"
same,Potency,MKL-2,"inconclusive: 10.2 µM [inhibitor, partial curve, poor fit]"
same,Potency,UISO,"inconclusive: 2.29 µM [inhibitor, partial curve]"
same,Potency,WaGa,"inconclusive: 0.115 µM [inhibitor, full curve]"
same,Potency,SKOV3,active: 0.0631 µM
